Some of the results follow. Sequences were assembled here from the parent chain. Inactive controls read about 0.05.
B1: TEV protease; numbered along this chain (parent)
chain: MGESLFKGPRDYNPISSSICHLTNESDGHTTSLYGIGFGPFIITNKHLFRRNNGTLVVQSLHGVFKVKDTTTLQQHLVDGRDMIIIRMPKDFPPFPQKLKFREPQREERICLVTTNFQTKSMSSMVSDTSCTFPSGDGIFWKHWIQTKDGQCGSPLVSTRDGFIVGIHSASNFTNTNNYFTSVPKNFMELLTNQEAQQWVSGWRLNADSVLWGGHKVFMVKPEEPFQPVKEATQL

Variants of: B1
Assay: raw area under fraction-flipped curve 0-4 h after induction (AUC4h, not background-subtracted), DNA-recorder readout of cleavage of the substrate (dimensionless); higher = more cleavage of the substrate by the protease variant
Conditions: temperature: 34 °C; time window: 0-4 h after rhamnose induction
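Also: Bxb1 expression induced with 0.2% (w/v) L-rhamnose at OD600 near 0.5, cultures sampled hourly, flipped fraction per protease–substrate barcode pair counted by paired-end Illumina sequencing.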

Row | Variant | area with substrate CNLYFQS | area with substrate DNLYFQS | area with substrate FNLYFQS | area with substrate GNLYFQS | area with substrate HNLYFQS | area with substrate KNLYFQS | area with substrate LNLYFQS | area with substrate MNLYFQS | area with substrate NNLYFQS | area with substrate PNLYFQS | area with substrate SNLYFQS | area with substrate WNLYFQS | area with substrate YNLYFQS | area with substrate INLYFQS | area with substrate TNLYFQS | area with substrate VNLYFQS | area with substrate QNLYFQS | area with substrate RNLYFQS
1 | MGESLFKGPRDYNPISSSICHLTNESDGHTTSLYGIGFGPFIITNKHLFRRNNGTLVVQSLHGVFKVKDTTTLQQHLVDGRDMIIIRMPKDFPPFPQKLKFREPQREERICLVTTNFQTKSMSSMVSDTSCTFPSGDGIFWKHWIQTKDGQCGSPLVSTRDGFIVGIHSASNFTNTNNYFTSVPKNFMELLTNQEAQQWVSGWRLNADSVQWGGHKVFMVKPEEPFQPVKEATQL [L211Q] | 0.0556 | 0.0858 | 0.0529 | 0.0908 | 0.0654 | 0.0599 | 0.0702 | 0.0692 | 0.0775 | 0.0653 | 0.0701 | 0.0522 | 0.0611 |  |  |  |  | 
2 | MGESLFKGPRDYNPISSSICHLTNESDGHTTSLYGIGFGPFIITNKHLFRRNNGTLVVQSLHGVFKVKDTTTLQQHLVDGRDMIIIRMPKDFPPFPQKLKFREPQREERICLVTTNFQTKSMSSMVSDTSCTFPSGDGIFWKHWIQTKDGQCGSPLVSTRDGFIVGIHSASNFTNTNNYFTSVPKNFMELLTNQEAQQWVSGWRLNADSVLWGGHKCFMVKPEEPFQPVKEATQL [V217C] | 0.0732 | 0.101 | 0.058 | 0.0666 | 0.0557 | 0.0707 | 0.0553 | 0.0602 | 0.0534 | 0.0761 | 0.071 | 0.061 | 0.0613 | 0.0573 | 0.0636 | 0.0767 |  | 
3 | MGESLFKGPRDYNPISSSICHLTNESDGHTTSLYGIGFGPFIITNKHLFRRNNGTLVVQSLHGVFKVKDTTTLQQHLVDGRDMIIIRMPKDFPPFPQKLKFREPQREERICLVTTNFQTKSMSSMVSDTSCTFPSGDGIFWKHWIQTKDGQCGSPLVSTRDGFIVGIHSASNFTNTNNYFTSVPKNFMELLTNQEAQQWVSGWRLNADSVLWGGHKPFMVKPEEPFQPVKEATQL [V217P] | 0.0651 | 0.0737 | 0.0767 | 0.0327 | 0.0585 | 0.0539 | 0.066 |  | 0.0503 | 0.0578 | 0.0442 | 0.0548 |  | 0.0524 | 0.0636 | 0.0371 | 0.0575 | 
4 | MGESLFKGPRDYNPISSSICHLTNESDGHTTSLYGIGFGPFIITNKHLFRRNNGTLVVQSLHGVFKVKDTTTLQQHLVDGRDMIIIRMPKDFPPFPQKLKFREPQREERICLVTTNFQTKSMSSMVSDTSCTFPSGDGIFWKHWIQTKDGQCGSPLVSTRDGFIVGIHSASNFTNTNNYFTSVPKNFMELLTNQEAQQWVSGWRLNADSVLWGGHKVFMVKPEEPNQPVKEATQL [F226N] | 0.0635 | 0.0695 |  | 0.0685 | 0.0606 | 0.0664 | 0.0693 |  | 0.0444 | 0.0653 | 0.091 | 0.044 | 0.0614 |  | 0.0577 | 0.0561 | 0.0402 | 0.0468
5 | MGESLFKGPRDYNPISSSICHLTNESDGHTTSLYGIGFGPFIITNKHLFRRNNGTLVVQSLHGVFKVKDTTTLQQHLVDGRDMIIIRMPKDFPPFPQKLKFREPQREERICLVTTNFQTKSMSSMVSDTSCTFPSGDGIFWKHWIQTKDGQCGSPLVSTRDGFIVGIHSASNFTNTNNYFTSVPKNFMELLTNQEAQQWVSGWRLNADSVLWGGHKVFMVKPEEPMQPVKEATQL [F226M] | 0.0709 | 0.0685 |  |  | 0.0632 | 0.0686 | 0.0578 | 0.0647 | 0.0659 | 0.0633 | 0.0665 | 0.0589 | 0.0573 | 0.103 | 0.0636 |  |  | 
6 | MGESLFKGPRDYNPISSSICHLTNESDGHTTSLYGIGFGPFIITNKHLFRRNNGTLVVQSLHGVFKVKDTTTLQQHLVDGRDMIIIRMPKDFPPFPQKLKFREPQREERICLVTTNFQTKSMSSMVSDTSCTFPSGDGIFWKHWIQTKDGQCGSPLVSTRDGFIVGIHSASNFTNTNNYFTSVPKNFMELLTNQEAQQWVSGWRLNADSVLWGGHKVFMVKPEEPHQPVKEATQL [F226H] | 0.0666 | 0.109 | 0.0644 | 0.0453 | 0.0675 | 0.0695 | 0.0662 | 0.0643 | 0.0517 | 0.0685 | 0.0741 | 0.0463 | 0.0617 | 0.0642 | 0.0696 |  |  | 0.0783
7 | MGESLFKGPRDYNPISSSICHLTNESDGHTTSLYGIGFGPFIITNKHLFRRNNGTLVVQSLHGVFKVKDTTTLQQHLVDGRDMIIIRMPKDFPPFPQKLKFREPQREERICLVTTNFQTKSMSSMVSDTSCTFPSGDGIFWKHWIQTKDGQCGSPLVSTRDGFIVGIHSASNFTNTNNYFTSVPKNFMELLTNQEAQQWVSGWRLNADSVLWGGCKVFMVKPEEPFQPVKEATQL [H215C] | 0.0552 | 0.0827 |  |  |  |  | 0.0456 |  |  |  |  | 0.0642 | 0.0615 | 0.07 |  | 0.0315 |  | 
8 | MGESLFKGPRDYNPISSSICHLTNESDGHTTSLYGIGFGPFIITNKHLFRRNNGTLVVQSLHGVFKVKDTTTLQQHLVDGRDMIIIRMPKDFPPFPQKLKFREPQREERICLVTTNFQTKSMSSMVSDTSCTFPSGDGIFWKHWIQTKDGQCGSPLVSTRDGFIVGIHSASNFTNTNNYFTSVPKNFMELLTNQEAQQWVSGWRLNADSVLWGGHKVFMVKPIEPFQPVKEATQL [E223I] | 0.0578 | 0.0757 |  |  |  |  |  | 0.0643 |  | 0.0578 | 0.0578 |  | 0.0594 | 0.063 | 0.0615 |  |  | 
9 | MGESLFKGPRDYNPISSSICHLTNESDGHTTSLYGIGFGPFIITNKHLFRRNNGTLVVQSLHGVFKVKDTTTLQQHLVDGRDMIIIRMPKDFPPFPQKLKFREPQREERICLVTTNFQTKSMSSMVSDTSCTFPSGDGIFWKHWIQTKDGQCGSPLVSTRDGFIVGIHSASNFTNTNNYFTSVPKNFMELLTNQEAQQWVSGWRLNADSVLWGGHKVFMVKPKEPFQPVKEATQL [E223K] | 0.0442 | 0.0802 | 0.0616 |  | 0.069 | 0.0636 | 0.0854 |  | 0.0565 | 0.0728 | 0.0612 | 0.0599 | 0.0641 | 0.0573 | 0.0713 |  | 0.0618 | 0.0605

Source: the supplement of paper PMC12217912
